Test results as given in the RNAGym collection of RNA variant scans (doi:10.1101/gad.245936.114).
This sample is rich in variants without activity.

B1: tRNA (parent)
chain: CUCUCGGUAGCCAAGUUGGUUUAAGGCGCAAGACUUUAAUUUAUCACUACGAAAUCUUGAGAUCGGGCGUUCGACUCGCCCCCGGGAGAUUUUUUCCUCGAGCAA

Variants of: B1
Assay: nonsense suppression (GFP-seq) (ratio to wild type); higher = more function; SUP4oc tRNA, yeast GFP reporter sort-seq
Summary of the method: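 Yeast were grown in raffinose/galactose medium with 80 mg/L adenine, each strain bearing a genome-integrated ochre-suppressor tRNA variant from a ~3% random-mutation library, a galactose-driven GFP ochre reporter, and RFP. After sorting into GFP/RFP bins, every bin was sequenced on an Illumina platform at phred ≥30. The GFPSEQ value, a measure of nonsense suppression, is the weighted bin median GFP/RFP relative to the unmutated parent tRNA, using each variant's estimated cell share per bin as the weight. Only variants with ≥100 reads and ≥30 cells were included.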

CUCUCGGUAGCCAAGUUGGUUUAAGGCGCAAGACUUUAAUUUAUCACUACGAAAUCUUUAUAUCGGGCGUUCGACUCGCCCCCGUGAGAUUUUUUCCUCGAGCAA [G59U G61U G85U] and CUCUCGGUAGCCAAGUUGGUUUAAGGCGCAAGACUUUAAUUUAUCACUACGAAAUCUUUACAUCGGGCGUUCGACUCGCCCCCGGGAGAUUUUUUCCUCGAGCAA [G59U G61C] cannot be ordered by nonsense suppression: ≤ 0.026 for the first, ≤ 0.026 for the second.

CUCUCGGUAGCCAAGUUGGUUUAAGGCGCAAGACUUUAAUUUAUCACUACGAAAUCUUUAUAUCGGGCGUUCGACUCGCCCCCGGGAGAUUUUUUCCUCGAGCAA [G59U G61U] and CUCUCGGUAGCCAAGUUGGUUUAAGGCGCAAGACUUUAAUUUAUCACUACGAAAUCUUUAAAUCGGGCGUUCGACUCGCCCCCGGGAGAUUUUUUCCUCGAGCAA [G59U G61A] cannot be ordered by nonsense suppression: ≤ 0.026 for the first, ≤ 0.026 for the second.

CUCUCGGUAGCCAAGUUGGUUUAAGGCGCAAGACUUUAAUUUAUCACUACGAAAUCUUGCGAUCGGGCGUUCGACUCGCCCCCGGGAGCUUUUUUCCUCGAGCAA [A60C A89C] and CUCUCGGUAGCCAAGUUGGUUUAAGGCGCAAGACUUUAAUUUAUCACUACGAAAUCUUGCGAUCGGACGUUCGACUCGCCCCCGGGAGAUUUUUUCCUCGAGCAA [A60C G67A] cannot be ordered by nonsense suppression: ≤ 0.026 for the first, ≤ 0.026 for the second.

CUCUCGGUAGCCAAGUUGGUUUAAGGCGCAAGACUUUAAUUUAUCACUACGAAAUCUUUAGAUCGGGCGAUCGACUCGCCCCCGGGAGAUUUUUUCCUCGAGCAA [G59U U70A] and CUCUCGGUAGCCAAGUUGGUUUAAGGCGCAAGACUUUAAUUUAUCACUACGAAAUCUUUAGAUCGGGCGUUCGACUCGCCCCCGGGAAAUUUUUUCCUCGAGCAA [G59U G88A] cannot be ordered by nonsense suppression: ≤ 0.026 for the first, ≤ 0.026 for the second.

Going from CUCUCGGUAGCCAAGUUGGUUUAAGGCGCAAGACUUUAAUUUAUCACUACGAAAUCUUUAGAUCGGGCGUUUGACUCGCCCCCGGGAGAUUUUUUCCUCGAGCAA [G59U C72U] to CUCUCGGUAGCCAAGUUGGUUUAAGGCGCAAGACUUUAAUUUAUCACUACGAAAUCUUGGGAACGGGCGUUCGACUCGCCCCCGGGAGAUUUUUUCCUCGAGCAA [A60G U63A], the nonsense suppression rises from ≤ 0.026 to 0.163.

Going from CUCUCGGUAGCCAAGUUGGUUUAAGGCGCAAGACUUUAAUUUAUCACUACGAAAUCUUGCUAUCGGGCGUUCGACUCGCCCCCGGGAGAUUUUUUCCUCGAGCAA [A60C G61U] to CUCUCGGUAGCCAAGUUGGUUUAAGGCGCAAGACUUUAAUUUAUCACUACGAAAUCUUUAGAUCGGGCGUUCCACUCGCCCCCGGGAGCUUUUUUCCUCGAGCAA [G59U G73C A89C], the nonsense suppression falls from 0.768 to ≤ 0.026.

CUCUCGGUAGCCAAGUUGGUUUAAGGCGCAAGACUUUAAUUUAUCACUACGAAAUCUUUAGAUCGGGCGUUCGACUCGCCCGCGGGAGAUUUUUUCCUCGAGCAA [G59U C82G] and CUCUCGGUAGCCAAGUUGGUUUAAGGCGCAAGACUUUAAUUUAUCACUACGAAAUCUUUAGAUCGGGCGCUCGACUCACCCCCGGGAGAUUUUUUCCUCGAGCAA [G59U U70C G78A] cannot be ordered by nonsense suppression: ≤ 0.026 for the first, ≤ 0.026 for the second.

Going from CUCUCGGUAGCCAAGUUGGUUUAAGGCGCAAGACUUUAAUUUAUCACUACGAAAUCUUGGGAUCGGGCGUUCGACUCGCCCCCAGGAGAUUUUUUCCUCGAGCAA [A60G G84A] to CUCUCGGUAGCCAAGUUGGUUUAAGGCGCAAGACUUUAAUUUAUCACUACGAAAUCUUGCGAUCGCGCGUUCGACUCGCCCCCGGGAGAUUUUUUCCUCGAGCAA [A60C G66C], the nonsense suppression falls from 0.269 to ≤ 0.026.

CUCUCGGUAGCCAAGUUGGUUUAAGGCGCAAGACUUUAAUUUAUCACUACGAAAUCUUGCGAUCGUGCGUUCGACUCGCCCCCGGGAGAUUUUUUCCUCGAGCAA [A60C G66U] and CUCUCGGUAGCCAAGUUGGUUUAAGGCGCAAGACUUUAAUUUAUCACUACGAAAUCUUGGCAUCGGGCGUGCGACUCGCCGCCGGGAGAUUUUUUCCUCGAGCAA [A60G G61C U71G C81G] cannot be ordered by nonsense suppression: ≤ 0.026 for the first, ≤ 0.026 for the second.

CUCUCGGUAGCCAAGUUGGUUUAAGGCGCAAGACUUUAAUUUAUCACUACGAAAUCUUGCGCUCGGGCGUUCGACUCGCCCCCGGGGGAUUUUUUCCUCGAGCAA [A60C A62C A87G] and CUCUCGGUAGCCAAGUUGGUUUAAGGCGCAAGACUUUAAUUUAUCACUACGAAAUCUUGCGAUCGGGAGUUCGACUCGCCCCCGGGACAUUUUUUCCUCGAGCAA [A60C C68A G88C] cannot be ordered by nonsense suppression: ≤ 0.026 for the first, ≤ 0.026 for the second.

CUCUCGGUAGCCAAGUUGGUUUAAGGCGCAAGACUUUAAUUUAUCACUACGAAAUCUUGGGAUCGGACUUUCGGCCCGCCCCCGGGAGAUUUUUUCCUCGAGCAA [A60G G67A G69U A74G U76C] and CUCUCGGUAGCCAAGUUGGUUUAAGGCGCAAGACUUUAAUUUAUCACUACGAAAUCUUGGGAUCGGUCGUUCGACUCGCCCCGGGGAGAUUUUUUCCUCGAGCAA [A60G G67U C83G] cannot be ordered by nonsense suppression: ≤ 0.026 for the first, ≤ 0.026 for the second.

CUCUCGGUAGCCAAGUUGGUUUAAGGCGCAAGACUUUAAUUUAUCACUACGAAAUCUUGGGAUGGGGCGUUCGACUCGCCCCCGGGAGAUUUUUUCCUCGAGCAA [A60G C64G] and CUCUCGGUAGCCAAGUUGGUUUAAGGCGCAAGACUUUAAUUUAUCACUACGAAAUCUUGCGAUCGGGCGUUGGACUCGCCCCCGGGAGAUUUUUUCCUCGAGCAA [A60C C72G] cannot be ordered by nonsense suppression: ≤ 0.026 for the first, ≤ 0.026 for the second.

CUCUCGGUAGCCAAGUUGGUUUAAGGCGCAAGACUUUAAUUUAUCACUACGAAAUCUUGCGAUCGGGCGUUCGACUCGCCCCCGGGAUAUUUUUUCCUCGAGCAA [A60C G88U] and CUCUCGGUAGCCAAGUUGGUUUAAGGCGCAAGACUUUAAUUUAUCACUACGAAAUCUUGCGAUUGAGCGUUCGACUCGCCCCCGGGAGAUUUUUUCCUCGAGCAA [A60C C64U G66A] cannot be ordered by nonsense suppression: ≤ 0.026 for the first, ≤ 0.026 for the second.

For CUCUCGGUAGCCAAGUUGGUUUAAGGCGCAAGACUUUAAUUUAUCACUACGAAAUCUUGGGAUCGAGCGUUCGACUCGCCCCGGGGAGAUUUUUUCCUCGAGCAA [A60G G66A C83G], the nonsense suppression was ≤ 0.026.
